Data: PubChem BioAssay AID1347428 (National Center for Advancing Translational Sciences (NCATS), 2020)
In all, about 91,000 compounds went through this assay and about 290 (0.32%) were called active. Inconclusive results, whose numbers are uncertain, are shown with a selection of clear calls. Calls come from the whole dose curve; as a rule, active = well fitted inhibition curve with a large enough effect; inconclusive = small, poorly fitted or top-dose-only effect; inactive = no such curve, though single readings can be large or run the other way. Where the call is inconclusive, the potency comes from a doubtful curve fit.

molecular target: Single-stranded DNA cytosine deaminase (Homo sapiens) (UniProt Q9GZX7); assay: Primary qHTS assay for inhibitors of Activation Induced Cytidine Deaminase (AID): AID signal; settings: AID deamination FRET fluorescence, UDG-coupled, 4 h; activity change, negative = inhibition: at 115 µM (top of the series); note: nearly all actives have a fitted effect of over 25% in size
% is set by controls: 0 for no effect and ±100 for the full control effect; potency is the fitted concentration of half-maximal effect; tags give direction and shape of the fitted curve.

UniProt Q9GZX7, sequence (Q9GZX7 whole entry, looked up): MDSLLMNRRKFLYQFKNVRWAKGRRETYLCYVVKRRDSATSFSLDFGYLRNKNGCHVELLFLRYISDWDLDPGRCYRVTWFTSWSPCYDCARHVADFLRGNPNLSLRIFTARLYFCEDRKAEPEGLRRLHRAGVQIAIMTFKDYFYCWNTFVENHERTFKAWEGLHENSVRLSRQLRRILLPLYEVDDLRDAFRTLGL

Compound | activity change, negative = inhibition | Potency
O/N=C/c1ccc(-n2ccnc2)cc1 | inactive: -5.22% | 
CC(C)OCCCNC(=O)c1cc2c(-c3ccc(Cl)cc3)nn(C)c2s1 |  | inconclusive: 56.2 µM [inhibitor, partial curve, poor fit]
CCOC(=O)c1ccc(N2C(=O)c3n[nH]c(-c4cccs4)c3C2c2ccc(C(C)(C)C)cc2)cc1 (stereo not drawn) |  | inconclusive: 39.8 µM [inhibitor, single point]
CCN(Cc1ccccc1)Cc1c(O)ccc2c(=O)c(-c3ccccc3)c(C(F)(F)F)oc12 |  | inconclusive: 89.1 µM [inhibitor, single point]
O=C(c1[nH]c2ccccc2c1Sc1ccc(Cl)cc1)N1CCCCC1 |  | inconclusive: 14.1 µM [inhibitor, partial curve, poor fit]
COc1cc(/C=C(/C#N)C(=O)C(C)C)cc(Cl)c1O | inactive: -5.36% | 
CCOc1cccc(CC(=O)N2CCc3c([nH]c4ccccc34)C2c2ccccc2)c1OCC (stereo not drawn) |  | inconclusive: 8.91 µM [inhibitor, full curve, poor fit]
CCN(C(=O)c1cc2c(=O)oc3ccc(C)cc3c2s1)c1cc(OC)ccc1OC |  | inconclusive: 3.55 µM [inhibitor, full curve]
O=c1c2cnc(N3CCc4ccccc4C3)nc2ccn1-c1ccccc1 |  | inconclusive: 50.1 µM [inhibitor, partial curve, poor fit]
COc1cc(Cl)c(C)cc1NC(=O)c1ccc2c(SCC(=O)O)c3c(nc2c1)CCCC3 |  | inconclusive: 5.01 µM [inhibitor, full curve, poor fit]
COc1ccc2c(C)c(CCC(=O)NCc3ccc(S(N)(=O)=O)cc3)c(=O)oc2c1 | inactive: 0.109% | 
FC(F)(F)c1ccc2nnc(SCc3c(Cl)cccc3Cl)n2c1 | inactive: -11.5% | 
N#Cc1ccccc1OCc1csc(-c2ccccc2)n1 |  | inconclusive: 44.7 µM [inhibitor, partial curve]
CCOc1ccccc1NC(=O)Cn1cc(C(=O)c2ccc(Cl)cc2)c(=O)c2ccc(C)nc21 |  | inconclusive: 100 µM [inhibitor, single point]
CCCCCCCCS(=O)(=O)CCSc1cccc2cccnc12 |  | inconclusive: 50.1 µM [inhibitor, partial curve, poor fit]
COc1cccc(CNC(=O)CSc2c3c(nc4cc(Cl)ccc24)CCCC3)c1 |  | inconclusive: 44.7 µM [inhibitor, partial curve, poor fit]
CCCOc1c(Cl)cc(C(=O)N(Cc2cccc(OC)c2)C2CCS(=O)(=O)C2)cc1Cl (stereo not drawn) |  | inconclusive: 31.6 µM [inhibitor, full curve, poor fit]
O=C(N/N=C/C=C/c1ccccc1[N+](=O)[O-])NC1CCCCC1 | inactive: -8% | 
CCOc1ccc(NC(=O)CN(c2ccc(Cl)cc2C)S(=O)(=O)c2ccccc2)cc1 |  | inconclusive: 10 µM [inhibitor, partial curve, poor fit]
COc1ccccc1N1CCN(c2nc(-c3ccc(C)cc3)nc3ccccc23)CC1 |  | inconclusive: 39.8 µM [inhibitor, partial curve, poor fit]
Cn1cc(C(=O)N2CCN(c3cccc(C(F)(F)F)c3)CC2)c2c3ccccc3n(C)c2c1=O |  | inconclusive: 50.1 µM [inhibitor, partial curve, poor fit]
Cc1ccc(SCc2ccc(C(=O)Nc3cc(C)ccc3C)cc2)cc1 | inactive: -2.7% | 

Compound | activity change, negative = inhibition | Potency
c1ccc(-c2csc3nc(CN4CCCCC4)nc(Nc4cn[nH]c4)c23)cc1 |  | inconclusive: 79.4 µM [inhibitor, partial curve, poor fit]
Cc1ccc(-c2ccc(/C=N/Nc3ccc(S(N)(=O)=O)cc3)o2)c([N+](=O)[O-])c1 | inactive: 27.3% | 
CCCc1nc2ccccc2n2c(-c3cccc(C)c3)c3c(=O)n(C)c(=O)n(C)c3c12 |  | inconclusive: 15.8 µM [inhibitor, single point]
CCOC(=O)c1c(C)oc2nc(C)nc(NCc3ccccc3OCC)c12 |  | inconclusive: 39.8 µM [inhibitor, partial curve, poor fit]
CC(=O)Nc1ccc(C2Nc3c(C)cc(C)cc3-c3cc(C)nn32)cc1 (stereo not drawn) |  | inconclusive: 39.8 µM [inhibitor, single point]
CS(=O)(=O)c1ccccc1NC(=O)CNc1cc(Cl)ccc1N1CCCC1 | inactive: 1.75% | 
COCCCN(CCOC)Cc1ccccc1 | inactive: -2.88% | 
Cc1ccc(C2Cc3ccccc3N2)cc1 (stereo not drawn) | inactive: 6.84% | 
Cc1nn(-c2nc3ccccc3o2)c2c1C(c1cccc(C(F)(F)F)c1)CC(=O)N2 (stereo not drawn) | inactive: -9.59% | 
O=C(NCc1ccccc1Cl)c1ccc2c(O)c(S(=O)(=O)c3ccccc3)c(=O)[nH]c2c1 |  | inconclusive: 50.1 µM [inhibitor, partial curve, poor fit]
CCC1CN(C(=O)Nc2cc(C)cc(C)c2)c2ccccc2O1 (stereo not drawn) |  | inconclusive: 79.4 µM [inhibitor, partial curve, poor fit]
Cc1ccc(C(=O)NCC(c2cccnc2)N2CCc3ccccc32)cc1C (stereo not drawn) |  | inconclusive: 50.1 µM [inhibitor, partial curve, poor fit]
COc1cccc(OCc2nc3ccccc3n2CCOc2ccccc2C)c1 |  | inconclusive: 28.2 µM [inhibitor, partial curve, poor fit]
CC1CCN(S(=O)(=O)c2cc3c4c(c2)CC(=O)N4CCC3)CC1 | inactive: 0.0655% | 
Cc1cccc(C)c1N1CC(c2nc3ccccc3n2CC(=O)OC(C)C)CC1=O (stereo not drawn) | inactive: -4.86% | 
COc1ccccc1Nc1nn2c(=O)c3ccc(C(=O)N4CCCCC4)cc3nc2s1 |  | inconclusive: 6.31 µM [inhibitor, partial curve, poor fit]
FC(F)(F)c1cccc(N/N=C/c2ccccc2Br)c1 | inactive: -7.14% | 
CC(Nc1ccc2oc(C3CC3)nc2c1)C(=O)NC(=O)NC1CC1 (stereo not drawn) | inactive: 0.0597% | 
Cc1nc2nc(N)nn2c(C)c1CCC(=O)NCCC(C)C | inactive: -6.25% | 
Cc1nc2nc(SCc3ccc(F)cc3Cl)nn2c(C)c1Cc1ccccc1 |  | inconclusive: 10 µM [inhibitor, partial curve, poor fit]
COc1cc(CCC(=O)NCc2ccc3c(c2)CCN3C(=O)c2cccc(C)c2)cc(OC)c1OC |  | inconclusive: 39.8 µM [inhibitor, single point]
